Changes are numbered by the printed parent chain; changes in the protein carry UniProt numbers. This is one part of the list.
T1: RBFOX1 RRM RbFoxmut (Fox-RRM*) (Homo sapiens, UniProt Q9NWB1 109-208, R118D;E147R;N151S;E152T)
T1 sequence: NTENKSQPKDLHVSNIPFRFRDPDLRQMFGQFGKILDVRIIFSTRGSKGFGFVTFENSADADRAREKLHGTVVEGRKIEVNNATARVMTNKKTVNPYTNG

B1: UCUCCCU (DNA:RNA)
RNA: GGGAGACCGGAAUUCAGAUUGUCCUCUCCCUUUAAAUCCCGUCGUAGCCACCA
DNA 1: CAATCTGAATTCCGGTCTCCC
DNA 2: TGGTGGCTACGACGGGATT
B2: GAAGCCA (DNA:RNA)
RNA: B1 RNA with U25G, C26A, U27A, C28G, U31A
DNA 1: CAATCTGAATTCCGGTCTCCC
DNA 2: TGGTGGCTACGACGGGATT
B3: ACUACGU (DNA:RNA)
RNA: B1 RNA with U25A, C28A, C30G
DNA 1: CAATCTGAATTCCGGTCTCCC
DNA 2: TGGTGGCTACGACGGGATT
B4: GCACGCG (DNA:RNA)
RNA: B1 RNA with U25G, U27A, C29G, U31G
DNA 1: CAATCTGAATTCCGGTCTCCC
DNA 2: TGGTGGCTACGACGGGATT
B5: GUCCUAC (DNA:RNA)
RNA: B1 RNA with U25G, C26U, U27C, C29U, C30A, U31C
DNA 1: CAATCTGAATTCCGGTCTCCC
DNA 2: TGGTGGCTACGACGGGATT
B6: ACCUAGA (DNA:RNA)
RNA: B1 RNA with U25A, U27C, C28U, C29A, C30G, U31A
DNA 1: CAATCTGAATTCCGGTCTCCC
DNA 2: TGGTGGCTACGACGGGATT
B7: CUCAACC (DNA:RNA)
RNA: B1 RNA with U25C, C26U, U27C, C28A, C29A, U31C
DNA 1: CAATCTGAATTCCGGTCTCCC
DNA 2: TGGTGGCTACGACGGGATT
B8: CCGGCCU (DNA:RNA)
RNA: B1 RNA with U25C, U27G, C28G
DNA 1: CAATCTGAATTCCGGTCTCCC
DNA 2: TGGTGGCTACGACGGGATT
B9: CUGCCAC (DNA:RNA)
RNA: B1 RNA with U25C, C26U, U27G, C30A, U31C
DNA 1: CAATCTGAATTCCGGTCTCCC
DNA 2: TGGTGGCTACGACGGGATT
B10: GUAGGUU (DNA:RNA)
RNA: B1 RNA with U25G, C26U, U27A, C28G, C29G, C30U
DNA 1: CAATCTGAATTCCGGTCTCCC
DNA 2: TGGTGGCTACGACGGGATT
B11: CGGGCCC (DNA:RNA)
RNA: B1 RNA with U25C, C26G, U27G, C28G, U31C
DNA 1: CAATCTGAATTCCGGTCTCCC
DNA 2: TGGTGGCTACGACGGGATT
B12: UACGGUU (DNA:RNA)
RNA: B1 RNA with C26A, U27C, C28G, C29G, C30U
DNA 1: CAATCTGAATTCCGGTCTCCC
DNA 2: TGGTGGCTACGACGGGATT
B13: CGCAUGG (DNA:RNA)
RNA: GGGAGACCGGAAUUCAGAUUGUCCCGCAUGGUUAAAUCCCGUCGUAGCCACCA
DNA 1: CAATCTGAATTCCGGTCTCCC
DNA 2: TGGTGGCTACGACGGGATT
B14: UCUCGUA (DNA:RNA)
RNA: B1 RNA with C29G, C30U, U31A
DNA 1: CAATCTGAATTCCGGTCTCCC
DNA 2: TGGTGGCTACGACGGGATT
B15: UCUCAAG (DNA:RNA)
RNA: B1 RNA with C29A, C30A, U31G
DNA 1: CAATCTGAATTCCGGTCTCCC
DNA 2: TGGTGGCTACGACGGGATT
B16: UCGAGGU (DNA:RNA)
RNA: B1 RNA with U27G, C28A, C29G, C30G
DNA 1: CAATCTGAATTCCGGTCTCCC
DNA 2: TGGTGGCTACGACGGGATT
B17: GCAAACA (DNA:RNA)
RNA: B1 RNA with U25G, U27A, C28A, C29A, U31A
DNA 1: CAATCTGAATTCCGGTCTCCC
DNA 2: TGGTGGCTACGACGGGATT
B18: UGUUGGC (DNA:RNA)
RNA: B13 RNA with C25U, C27U, A28U, U29G, G31C
DNA 1: CAATCTGAATTCCGGTCTCCC
DNA 2: TGGTGGCTACGACGGGATT
B19: UCCGCGG (DNA:RNA)
RNA: B13 RNA with C25U, G26C, A28G, U29C
DNA 1: CAATCTGAATTCCGGTCTCCC
DNA 2: TGGTGGCTACGACGGGATT
B20: AGGCGUC (DNA:RNA)
RNA: B13 RNA with C25A, C27G, A28C, U29G, G30U, G31C
DNA 1: CAATCTGAATTCCGGTCTCCC
DNA 2: TGGTGGCTACGACGGGATT
B21: AAACCGU (DNA:RNA)
RNA: B1 RNA with U25A, C26A, U27A, C30G
DNA 1: CAATCTGAATTCCGGTCTCCC
DNA 2: TGGTGGCTACGACGGGATT
B22: AGUGCGA (DNA:RNA)
RNA: B13 RNA with C25A, C27U, A28G, U29C, G31A
DNA 1: CAATCTGAATTCCGGTCTCCC
DNA 2: TGGTGGCTACGACGGGATT
B23: AUUGAGC (DNA:RNA)
RNA: B13 RNA with C25A, G26U, C27U, A28G, U29A, G31C
DNA 1: CAATCTGAATTCCGGTCTCCC
DNA 2: TGGTGGCTACGACGGGATT
B24: ACAAAAG (DNA:RNA)
RNA: B13 RNA with C25A, G26C, C27A, U29A, G30A
DNA 1: CAATCTGAATTCCGGTCTCCC
DNA 2: TGGTGGCTACGACGGGATT
B25: CAUGACA (DNA:RNA)
RNA: B1 RNA with U25C, C26A, C28G, C29A, U31A
DNA 1: CAATCTGAATTCCGGTCTCCC
DNA 2: TGGTGGCTACGACGGGATT
B26: AAGCGGA (DNA:RNA)
RNA: B13 RNA with C25A, G26A, C27G, A28C, U29G, G31A
DNA 1: CAATCTGAATTCCGGTCTCCC
DNA 2: TGGTGGCTACGACGGGATT
B27: UUCACGG (DNA:RNA)
RNA: B13 RNA with C25U, G26U, U29C
DNA 1: CAATCTGAATTCCGGTCTCCC
DNA 2: TGGTGGCTACGACGGGATT
B28: AGUCCAU (DNA:RNA)
RNA: B1 RNA with U25A, C26G, C30A
DNA 1: CAATCTGAATTCCGGTCTCCC
DNA 2: TGGTGGCTACGACGGGATT
B29: UUUCUAG (DNA:RNA)
RNA: B1 RNA with C26U, C29U, C30A, U31G
DNA 1: CAATCTGAATTCCGGTCTCCC
DNA 2: TGGTGGCTACGACGGGATT
B30: AUCAGAA (DNA:RNA)
RNA: B13 RNA with C25A, G26U, U29G, G30A, G31A
DNA 1: CAATCTGAATTCCGGTCTCCC
DNA 2: TGGTGGCTACGACGGGATT
B31: GGCUUGA (DNA:RNA)
RNA: B13 RNA with C25G, A28U, G31A
DNA 1: CAATCTGAATTCCGGTCTCCC
DNA 2: TGGTGGCTACGACGGGATT

molecular target: T1, RBFOX1 RRM RbFoxmut (Fox-RRM*); experiment: EMSA; HiTS-Eq, 1 nM pool, 10 min; buffer printed only for the single-RNA assays: 10 mM Tris pH 7.5, 150 mM NaCl, 3.4 mM EDTA, 0.001% NP-40, 30 C; conditions: tags: His6 N-terminal (pET28a); label: 5' 32P
In short: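 Purified wild-type or mutant RbFox RRM at increasing concentrations was equilibrated with 1 nM of 5′-radiolabelled RNA carrying 7 randomized nucleotides for 10 min in 50 µL. Unbound RNA was separated by 8% native PAGE and sequenced. Relative association constants came from read-count changes of each RNA species compared with the control reaction, normalised to the cognate motif.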

Compared with B1, B2 is higher in binding signal: 0.0345 KA relative to UGCAUGU for the first, 0.0844 KA relative to UGCAUGU for the second.

First: B3
Second: B4
The binding signal of the first is lower: 0.122 KA relative to UGCAUGU for the first, 0.184 KA relative to UGCAUGU for the second.

First: B5
Second: B6
The binding signal of the first is lower: 0.0713 KA relative to UGCAUGU for the first, 0.109 KA relative to UGCAUGU for the second.

First: B7
Second: B8
The binding signal of the first is higher: 0.0528 KA relative to UGCAUGU for the first, 0.0519 KA relative to UGCAUGU for the second.

First: B9
Second: B10
The binding signal of the first is lower: 0.07 KA relative to UGCAUGU for the first, 0.12 KA relative to UGCAUGU for the second.

First: B11
Second: B12
The binding signal of the first is lower: 0.081 KA relative to UGCAUGU for the first, 0.0904 KA relative to UGCAUGU for the second.

Compared with B13, B14 is lower in binding signal: 0.804 KA relative to UGCAUGU for the first, 0.117 KA relative to UGCAUGU for the second.

First: B15
Second: B16
The binding signal of the first is higher: 0.124 KA relative to UGCAUGU for the first, 0.117 KA relative to UGCAUGU for the second.

First: B17
Second: B18
The binding signal of the first is lower: 0.0705 KA relative to UGCAUGU for the first, 0.0854 KA relative to UGCAUGU for the second.

First: B19
Second: B20
The binding signal of the first is lower: 0.0935 KA relative to UGCAUGU for the first, 0.105 KA relative to UGCAUGU for the second.

First: B21
Second: B22
The binding signal of the first is higher: 0.0861 KA relative to UGCAUGU for the first, 0.0666 KA relative to UGCAUGU for the second.

First: B23
Second: B24
The binding signal of the first is higher: 0.159 KA relative to UGCAUGU for the first, 0.116 KA relative to UGCAUGU for the second.

First: B25
Second: B26
The binding signal of the first is lower: 0.0647 KA relative to UGCAUGU for the first, 0.0694 KA relative to UGCAUGU for the second.

First: B27
Second: B28
The binding signal of the first is lower: 0.0691 KA relative to UGCAUGU for the first, 0.0943 KA relative to UGCAUGU for the second.

First: B29
Second: B30
The binding signal of the first is higher: 0.143 KA relative to UGCAUGU for the first, 0.0972 KA relative to UGCAUGU for the second.

For B31, the binding signal was 0.244 KA relative to UGCAUGU.

Reference: publication PMC9911399, “Two distinct binding modes provide the RNA-binding protein RbFox with extraordinary sequence specificity”
